Assay results reported in the supplement of paper PMC7436455.
The list shows a part of the results. Rule as the data show it: only hits are listed; in these data all have Qbind below 0.67. Most values come without repeats; read them as rough.

Key:
Assay in all cases: Qbind: 19F CPMG 200 ms/0 ms integral ratio with target relative to without target; higher = weaker binding (less relaxation enhancement by target)
[1] = system: Adenine-sensing riboswitch
[2] = system: HDV ribozyme (70 nt); details: 19F shift (ppm): -120.618
[3] = system: Hammerhead ribozyme (54 nt); details: 19F shift (ppm): -120.618
[4] = system: PtkA (30 kDA); details: 19F shift (ppm): -120.466
[5] = system: TPP-sensing riboswitch tenA
[6] = system: TPP-sensing riboswitch thiM (80)
[7] = system: Tel26 G-quadruplex (26 nt); details: 19F shift (ppm): -120.548
[8] = system: Terminator stem (39 nt); details: 19F shift (ppm): -120.531
[9] = system: Translation initiation region (60 nt); details: 19F shift (ppm): -120.618
[10] = system: ZMP-sensing riboswitch; details: 19F shift (ppm): -120.531
[11] = system: c-di-GMP-sensing riboswitch (98 nt); details: 19F shift (ppm): -120.531
[12] = system: cGAMP-sensing riboswitch; details: 19F shift (ppm): -120.531
[13] = system: cKit G-quadruplex (24 nt); details: 19F shift (ppm): -120.548
[14] = system: cMyc G-quadruplex (22 nt); details: 19F shift (ppm): -120.548
[15] = system: tRNA (77nt); details: 19F shift (ppm): -120.618
[16] = system: wtTel26 G-quadruplex (26 nt); details: 19F shift (ppm): -120.548

Measured: Qbind: 19F CPMG 200 ms/0 ms integral ratio

N#Cc1ccc(N2CCNCC2)c(F)c1
active: [1]; 19F shift (ppm): -120.618 = -0.0494 | [2] 0.449 | [3] 0.261 | [4] 0.178 | [5]; 19F shift (ppm): -120.5772 = -0.283 | [6]; 19F shift (ppm): -120.5772 = 0.0822 | [7] 0.0195 | [8] 0.605 | [9] 0.133 | [10] -0.018 | [11] 0.052 | [12] 0.104 | [13] -0.1 | [14] 0.0959 | [15] 0.351 | [16] 0.233

CNC(C)c1ccc(F)cc1.Cl (centres undefined)
active: [1]; 19F shift (ppm): -112.4396 = 0.615

Cn1cc(C(N)=O)c(C(F)F)n1
active: [5]; 19F shift (ppm): -114.5188 = 0.0289 | [6]; 19F shift (ppm): -114.5188 = -0.0226
